The whole screen tested about 46,000 compounds, of which about 60 (0.1%) were called active. About 3% were inconclusive and are not listed. Calls follow the shape of the dose curve; as a rule, active = well fitted inhibition curve with a large enough effect; inconclusive = small, poorly fitted or top-dose-only effect; inactive = no such curve, though single readings can be large or run the other way. The list shows a part of the results.
Assay: Primary qHTS assay for Inhibitors of ovarian cancer metastasis using an organotypic tumor microenvironment (TME) model. Also: nearly all actives have a fitted effect of over 65% in size.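 As to activity change, negative = inhibition: plate controls were DMSO wells for no effect and tomatine positive control wells for full effect.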
Conditions: SKOV3ip1-GFP adhesion/invasion on 3D omental model, fluorescence; series mostly up to 45.8 µM; activity change, negative = inhibition: at the top concentration
Procedure, shortened: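 qHTS, 4-pt dose (0.36-46 umol/L); SKOV3ip1-GFP, 1,200 cells/well, no FBS; primary omental fibroblast/mesothelial co-culture 48 h pre-grown; 2 h RT + 16 h 37 C; PBS wash, 4% PFA; GFP count 488/509 nm.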

Row | SMILES | activity change, negative = inhibition | outcome
1 | Cc1nn2c(C)c(C(=O)N3CCN(c4ccc(Cl)cc4)CC3)cnc2c1-c1ccc(F)cc1 | inactive: -20.2% | –
2 | Cc1ccc2nc(NC(=O)c3ccc(S(=O)(=O)N4CCC(C)CC4)cc3)sc2c1 | – | inactive
3 | Cc1ccccc1CN1C(=O)c2ccccc2Sc2ccc(C(=O)NCCc3ccccc3)cc21 | – | inactive
4 | CCn1cc(C(=O)N2CCN(c3cccc(Cl)c3)CC2)c(=O)c2cc(S(=O)(=O)N3CCC(C)CC3)ccc21 | – | inactive
5 | CCOC(=O)c1c(C)[nH]c(C)c1S(=O)(=O)N1CCC(C(=O)N2CCN(c3ccc(F)cc3)CC2)CC1 | inactive: -11.4% | –
6 | Cc1ccc2c(=O)cc(CSc3ncn[nH]3)[nH]c2c1C | inactive: -1.93% | –
7 | Cc1ccnc(NS(=O)(=O)c2ccc(NC(=O)c3ccc(C)c(C)c3)cc2)n1 | inactive: -0.939% | –
8 | Cc1cccc(C)c1OCC(=O)N(Cc1ccco1)Cc1ccco1 | inactive: -13.8% | –
9 | C=Cc1ccc(Cn2c(C)c(CNCCc3ccc(OCC)cc3)c(C(=O)O)c2C)cc1 | inactive: -3.7% | –
10 | CN1CCN(CCNC(=O)c2cnn(-c3ccc(F)cc3)c2C2CCN(C(=O)OC(C)(C)C)CC2)CC1 | inactive: 6.5% | –
11 | O=C(CCCN1C(=O)c2cccnc2Oc2ccc(Cl)cc21)NCc1ccc(F)cc1 | inactive: -4.24% | –
12 | CCCCNC(=O)c1ccc2c(c1)N=C(CC)c1ccccc1S2 | inactive: 5.76% | –
13 | CCc1cccc(CC)c1NC(=O)c1c(C)oc2ccc(O)c(CN3CCCC3)c12 | inactive: -2.67% | –
14 | Cc1ccc(N2CC(NC(=O)c3cccs3)CC2=O)cc1 (stereo not drawn) | – | inactive
15 | CC1=C(c2ccc(C)c(C)c2)S(=O)(=O)N(Cc2ccc(C(=O)Nc3cc(F)ccc3F)cc2)C1=O | – | inactive
16 | O=C(CN1C(=O)C2(SCC(=O)N2c2ccc(F)cc2)c2ccccc21)NC1CCCCC1 (stereo not drawn) | inactive: 4.78% | –
17 | CCOc1ccc(-n2cc(-c3ccccc3)c3c(NC4CCCC4)ncnc32)cc1 | inactive: -2.01% | –
18 | Cc1ccc2c(c1)C(=O)OC(C(=O)Nc1ccccc1C(=O)O)C2 (stereo not drawn) | inactive: 0.0475% | –
19 | Cc1ccc(N2C(=O)CSC23C(=O)N(CC(=O)NCc2ccccc2)c2ccccc23)cc1 (stereo not drawn) | – | inactive
20 | O=C(Nc1ccccc1)Nc1nnc(SCC(=O)N2CCCCC2)s1 | inactive: 0.0448% | –
21 | CCCCc1ccc(NC(=O)CSc2nc(=O)[nH]c3c2CCCC3)cc1 | inactive: -0.253% | –
22 | Cc1cc2oc(C(=O)N(Cc3ccc(N(C)C)cc3)Cc3ccco3)c(C)c2cc1Cl | inactive: -6.3% | –
23 | COC(=O)CCN(c1ccccc1)C(CNS(=O)(=O)c1ccccc1)c1ccccc1 (stereo not drawn) | inactive: 2.35% | –
24 | O=C(Nc1cccc(C(=O)OCc2cc(=O)n3nc(C4CC4)sc3n2)c1)c1cccc(Cl)c1 | inactive: 6.5% | –

Row | SMILES | activity change, negative = inhibition | outcome
25 | CCOc1ccc(CCNC(=O)Cn2c(-c3cccs3)cc3ccccc32)cc1OCC | inactive: -1.56% | –
26 | Cc1ccc(C)c(NC(=O)CSc2ccc3nc(-c4ccccc4)cn3n2)c1 | inactive: 9.79% | –
27 | COc1cccc(N2CC(NC(=O)COc3ccccc3F)CC2=O)c1 (stereo not drawn) | inactive: -24.3% | –
28 | CCOc1ccc(NC(=O)c2cnc3sc(N4CCOCC4)nn3c2=O)cc1 | inactive: -6.04% | –
29 | Oc1cc2c(cc1O)C1c3ccc(O)c(O)c3OCC1(O)C2 (stereo not drawn) | inactive: 5.04% | –
30 | O=C(CSc1nc2c([nH]c3ccccc32)c(=O)n1-c1ccccc1F)Nc1cccc(C(F)(F)F)c1 | inactive: 47.9% | –
31 | CCOc1ccc(S(=O)(=O)N2CCN(Cc3nc4ccc(C)cc4o3)CC2)cc1 | – | inactive
32 | O=C1C(=O)N(C2CCN(C(=O)c3cccc(Cl)c3)CC2)CCN1Cc1ccc(F)cc1 | inactive: 2.95% | –
33 | CCc1ccc(CNC(=O)c2ccc(-c3nc(CSc4ccc(C)cc4)c(C)o3)cc2)cc1 | inactive: 1.25% | –
34 | CCSc1nnc(NC(=O)c2cc(=O)c3cc(C)ccc3o2)s1 | inactive: -4.83% | –
35 | O=C(CSc1oc(-c2ccc(F)cc2)nc1S(=O)(=O)c1ccccc1)NC1CCCCC1 | inactive: -7.18% | –
36 | COc1cc2c(cc1NC(=O)c1ccccc1C)n(C)c(=O)n2C | – | inactive
37 | O=C(Nc1ccccc1Br)c1cc(CN2CCCC2)on1 | inactive: 20.5% | –
38 | COc1cc(C(=O)NCCc2sc(-c3cccc(F)c3)nc2C)cc(OC)c1OC | – | inactive
39 | Cc1nc2cc(-c3cccc(F)c3)nn2c(C)c1CCC(=O)NC(C)c1ccccc1 (stereo not drawn) | – | inactive
40 | COc1ccc(-c2nnc(SCC(=O)Nc3c(C)cccc3C)nc2-c2ccc(OC)cc2)cc1 | inactive: -11.1% | –
41 | CCOC(=O)c1ccc(NC(=O)c2oc3c(c2C)-c2nn(Cc4ccccc4Cl)cc2CC3)cc1 | – | inactive
42 | CC(C)CNc1ncnc2onc(-c3ccc(Cl)cc3)c12 | – | inactive
43 | CC(CCc1ccccc1)NC(=O)Cn1ncc2c3ccccc3n(Cc3ccccc3)c2c1=O (stereo not drawn) | inactive: 0.79% | –
44 | O=C(CCN1C(=O)c2ccccc2Sc2ncccc21)Nc1ccc(F)cc1 | – | inactive
45 | COc1cccc(CNC(=O)CCn2cnc3ccccc3c2=O)c1 | inactive: 5.45% | –
46 | COc1cccc(-c2cc(C(=O)NCc3ccc(F)cc3)no2)c1 | – | inactive
47 | COc1ccccc1CNC(=O)Cn1c(=O)nc(-c2ccccc2F)c2cc(Cl)ccc21 | inactive: -5.62% | –
48 | Cc1ccc(-n2c(=O)c3cccnc3n2CC(=O)Nc2cc(C)cc(C)c2)cc1 | inactive: 3.19% | –

Source: PubChem BioAssay AID1963576 (National Center for Advancing Translational Sciences (NCATS), 2024)
